Reference: publication PMC12136788
Substitutions are numbered along the chain they refer to. The list shows a part of the results.

T1: UNK ZnF1-3 (human, UniProt Q9C0B0 31-174)
T1 sequence: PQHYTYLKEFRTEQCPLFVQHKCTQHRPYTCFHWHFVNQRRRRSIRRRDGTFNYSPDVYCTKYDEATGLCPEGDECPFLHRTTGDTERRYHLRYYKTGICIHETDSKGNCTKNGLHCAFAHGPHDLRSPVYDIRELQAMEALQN

B1: 179959653_179961213_610_CDS_ENSG00000135837_ENST00000367607|human|control|control (ssRNA)
RNA: GGGAGUUCUACAGUCCGACGAUCAUCCAGGUAUCUACCAUCUUUUCUACUUAUUUUUCGAGUAGCACUUGUAGAAGACUUCUUGGUAUCCAUGACAGAAUCACACACAGCUGUACUUGUAGGGGCUACUUCUAAUUUAUUUUCCAACAGAGGAUUGAGCAUCA
B2: chr7:141445308:141445309:+_ENSG00000106028_ENST00000265304|hu_hu|hu_hu_hu_mus_False|18_58 (ssRNA)
RNA: GGGAGUUCUACAGUCCGACGAUCUAUGAUUGUUGUUGCUUGCCGCCUCACAUUGUUUUUAUCCAUGUACUCGCCAUAGUCUAUUUUCCCUUCCACAAAUAUACGAGCCCCCUUUUUCACAUAUUGAUAUGCCACAUCUCUGAGCAACAGAGGAUUGAGCAUCA
B3: chr17:49239293:49239294:+_ENSG00000239672_ENST00000393196|hu_hu|motif|central (ssRNA)
RNA: GGGAGUUCUACAGUCCGACGAUCGAGAACUCACAGCUCCAAGAGCUUCCCUCCAAAUUAUGAUGAAGUUCCUGUAAAUAACGGGAUUUCCUACAGCCUGGUCCUCUGCCCAUGGGAAGGAGGGGAAAUGGAUGUGAAAAGCAACAACAGAGGAUUGAGCAUCA
B4: chr1:39494564:39494565:+_ENSG00000168653_ENST00000372967|hu_hu|hu_hu_hu_mus_True|68_88 (ssRNA)
RNA: GGGAGUUCUACAGUCCGACGAUCAUGCAUUCGCCUCAUCGUUUUGUGCCGAAGCAAGCACUCUUCGAAAUCAUCAUACUCUAUCUUGCACUCCUUUUUCGCCCGGGUCCCACCGAUCCCGUGUGCACACUCUAUCCACUCUUUCAACAGAGGAUUGAGCAUCA
B5: chr1:163112212:163112213:-_ENSG00000143248_ENST00000313961|hu_hu|hu_hu_hu_mus_False|28_98 (ssRNA)
RNA: GGGAGUUCUACAGUCCGACGAUCUUUUAUUAUCAGUAAGCAUGAGUUACAUACUAGGCAAAGUAUUGGAUACAAUAAUCAGGAAACAAACACUAUUGGUCCAGAAUUUAAAAUAUAAUGAGCGAAGUGCUGGCACAGGACUUACAACAGAGGAUUGAGCAUCA
B6: chr3:95127578:95127579:-_ENSMUSG00000015697_ENSMUST00000107170|mus_mus|motif|central (ssRNA)
RNA: GGGAGUUCUACAGUCCGACGAUCGGUUAUGUAACAUUUUUAGUUAAAAAUUACACAGGGCAAAUAAAAUCGAGGUAUAAACGGAUGAUAGUUGCCCACUGGGAAAUGACAUGGAAGAUCAAGGCAGGAGAUAAGACAAACCACCAACAGAGGAUUGAGCAUCA
B7: chrX:20248820:20248821:+_ENSMUSG00000001924_ENSMUST00000001989|mus_mus|mus_mus_mus_hu_True|8_8 (ssRNA)
RNA: GGGAGUUCUACAGUCCGACGAUCGGCGAAGUCCGUCACCACAAAGUCAGGUUCUGCCAGUGAGGCCACCAAGGAUUUAAAGCUAAUCUUCUUAGGUACUUUGACCUGACUGACGAUGCCUCCACGGAUGUAGUCAGAGAAGUUCAACAGAGGAUUGAGCAUCA
B8: chr4:17845017:17845018:+_ENSG00000109805_ENST00000514176|hu_mus|hu_hu_hu_mus_False|8_38 (ssRNA)
RNA: GGGAGUUCUACAGUCCGACGAUCGCUCUCUUAACUUGUAUCUUCAUUAAGGAACUCUGCAAGGUUAAGUUUACUUUUCUGUAGCGCAGCUGUUUUGCUCGUCUUGGGUAAUCUCAUCUUCAUUUCUAUUCUGGUUCCAUGAUCCAACAGAGGAUUGAGCAUCA
B9: 28428117_28428237_10128_3pUTR_ENSG00000104290_ENST00000240093|human|control|control (ssRNA)
RNA: GGGAGUUCUACAGUCCGACGAUCGCCUAGUGCACAGAGAACAUUUAAUCUACCAGAGAACUCUGCGGAGAUAUGGAACUAAUGCAAUCUCUACUUUUUUUUUUUUCUUUUUUUUUUUUUGAGAUAGAGUCUCGCUCCGUUGCCCAACAGAGGAUUGAGCAUCA
B10: chr1:163112212:163112213:-_ENSG00000143248_ENST00000313961|hu_hu|hu_hu_hu_mus_False|48_68 (ssRNA)
RNA: B5 RNA with C40A, A41G, G68A, U75A, U93A, U113C, A114U, A116U
B11: 45663463_45665008_1985_CDS_ENSMUSG00000020598_ENSMUST00000020939|mouse|control|control (ssRNA)
RNA: GGGAGUUCUACAGUCCGACGAUCAUUAUCAUGCAAAACAUAAAUGUCUUCAUGAAGAGCGCUUCCUUUAGUGCCUUUAAACCACUCAAUGGUAGGCAUAGGAGAUCCAAAGAAGGCACAAUCUAGCAAAGCAGGCCUGUUUGCCAACAGAGGAUUGAGCAUCA
B12: chr10:59412704:59412705:-_ENSMUSG00000020108_ENSMUST00000020308|mus_hu|FALSE|FALSE (ssRNA)
RNA: GGGAGUUCUACAGUCCGACGAUCGCUUAAACGCAGCUGCCAGGUGUAAUUUUUCAAGUGUCAAAGAUCCCAAGUGAUCCCUGACACCCACCCCUUCCUACUCUUACAUUCAUGCGUCUGUAAGAUAGCUGCCUACAACAGGUCCAACAGAGGAUUGAGCAUCA
B13: chr3:138113954:138113955:+_ENSMUSG00000028138_ENSMUST00000005964|mus_mus|motif|central (ssRNA)
RNA: GGGAGUUCUACAGUCCGACGAUCCGAAGGAUCGAUUUUAGCAACAGAGAUGUCAGCCACAACUGUGUACUCGGAAAAUGUGCGGGUCCCCAUGAAGUGAAAAACAGACUUUCCUUUGCAGGUAAAUCUGCUAGUCCCAUCUGGCAACAGAGGAUUGAGCAUCA
B14: chr12:85022504:85022505:+_ENSMUSG00000010608_ENSMUST00000048155|mus_hu|motif|central (ssRNA)
RNA: GGGAGUUCUACAGUCCGACGAUCCACAAGACCAAUUUUCUUGGCUUCUGUUUCAUAUAUCAAUAAUCUCCACAUUUUGACGGUAAAAACUUCUGCUUCUUCAUCAAGUACCAUGGCAACAUCAUCUAAAAUGCUCUGGGGUGACAACAGAGGAUUGAGCAUCA
B15: chr1:54681892:54681893:+_ENSG00000116221_ENST00000360840|hu_mus|FALSE|FALSE (ssRNA)
RNA: GGGAGUUCUACAGUCCGACGAUCCCAUACCAAAUUCUUGACGCCCUCGCUAGAAGCCAGAUCUGUGGUGUUCAACUGCAGCACCAGGAACUGGAAGACACGGCCAUCAGUGCCCACGCUCUGCACGACUAUUGGCUGCUCCAACAACAGAGGAUUGAGCAUCA
B16: chr2:121258011:121258012:+_ENSMUSG00000027248_ENSMUST00000028683|mus_mus|motif|central (ssRNA)
RNA: GGGAGUUCUACAGUCCGACGAUCCUUGCCUUGUAUCAAAUCUUUAUUAUCUUCCGUCAUAUGAGGACAGAGACCAAAAAUGCGGUCCUGAAUAAAUUUCUUGAUCUUGCCACUGGUCAUUUUCUUUUCAGUAUAUGCCACAGUCAACAGAGGAUUGAGCAUCA
B17: chr5:132270174:132270175:-_ENSG00000072364_ENST00000265343|hu_hu|FALSE|FALSE (ssRNA)
RNA: GGGAGUUCUACAGUCCGACGAUCAGAAUCCCAGUUUGCAUCAGGGUCCCGAGGUGAUUUGGAGCGUUGAUGUUCCUUGCUAUGGUGAUCAUUCCCAUGAGACCUGGAAUGACUAGAGUUUAAUGAAGAAACAGCCUGGGGUUUCAACAGAGGAUUGAGCAUCA
B18: chr6:36694466:36694467:-_ENSMUSG00000029838_ENSMUST00000101534|mus_hu|FALSE|FALSE (ssRNA)
RNA: GGGAGUUCUACAGUCCGACGAUCUUCAGCAGUAUCCACAGCUGCCAGUAUGAAAAUGAAUGCCAAGAAGGCAGCUGCAAAUUUUCGACGCUGCUGCUGGUACUGUUGAGCCUGCAUUUUUGAGUUGGAAACGUCCUCUCUGGCCAACAGAGGAUUGAGCAUCA
B19: chr9:106387587:106387588:+_ENSMUSG00000041506_ENSMUST00000047721|mus_mus|FALSE|FALSE (ssRNA)
RNA: GGGAGUUCUACAGUCCGACGAUCGCGGAGUGGGAUGAUGCAGACUGAGUUCCGGGCCUCUUUGAUCCUCCACCACCGGCCAAGCCUGUGCUCCUGUCCCACGCCUGCCACCAAGAAGUCCCCAGCACUGGAGAACUUGAGGCUCAACAGAGGAUUGAGCAUCA
B20: chr10:128108517:128108518:-_ENSMUSG00000049858_ENSMUST00000054764|mus_hu|FALSE|FALSE (ssRNA)
RNA: GGGAGUUCUACAGUCCGACGAUCAAAGUUGUGCAAGUCAUCCAGGGAAAGAGACAGUGACUGACCCCCAGGUGCUCCUACUACGUGUAAGCGAUAGGUGUCUGGAUCCAGGUUAGGUACAGGCAGAUGGUUCCGGGUGAAGAACAACAGAGGAUUGAGCAUCA
B21: chr15:42709458:42709459:-_ENSG00000103994_ENST00000263805|hu_mus|motif|central (ssRNA)
RNA: GGGAGUUCUACAGUCCGACGAUCGGAGGACAGAUAGGGGCCUGGAGAAGGACAGUGAACGGCCCAUGGGAGAAUUCUUCACGGAGGACUUCCCAACGUGGGAGGCAAAAAACUUCAUGAAUCUAUUUUGCUGUCAUCUUCAGCCAACAGAGGAUUGAGCAUCA
B22: chr11:47650564:47650565:-_ENSG00000109919_ENST00000530428|hu_hu|FALSE|FALSE (ssRNA)
RNA: GGGAGUUCUACAGUCCGACGAUCAUAGGUAUUGACGAGGUAGGCCAGUGAGUUACACAGCCACAAAGAAAGGAUGUCACCUAGAAGGCGAGGAACAAGACCCGCGAAAAAUCCUAGAAUGCCCUCUUCCCGAUAGAUGGUUAUCAACAGAGGAUUGAGCAUCA

target: T1, UNK ZnF1-3; assay: nsRBNS (natural sequence RNA bind-n-seq); RBNS binding buffer (assumed for nsRBNS): 25 mM Tris pH 7.5, 150 mM KCl, 3 mM MgCl2, 0.01% Triton X-100, 500 ug/ml BSA, 20 U/ml SUPERase-In, 4 C; UNK is unkempt and MSI1 is Musashi-1; names of the RNAs are library labels; protein concentration not given here; high values mean tight binding

| Binder | binding signal [enrichment R] |
| --- | --- |
| B1 | 0.837 |
| B2 | 0.61 |
| B3 | 1.41 |
| B4 | 0.697 |
| B5 | 1.9 |
| B6 | 1.38 |
| B7 | 1.06 |
| B8 | 0.4 |
| B9 | 1.31 |
| B10 | 1.47 |
| B11 | 0.868 |
| B12 | 0.745 |
| B13 | 0.894 |
| B14 | 1.24 |
| B15 | 1.03 |
| B16 | 1.35 |
| B17 | 1.05 |
| B18 | 1.09 |
| B19 | 1 |
| B20 | 1.54 |
| B21 | 1.52 |
| B22 | 1.32 |
